# Reference: article PMC12136788
# Some of the results follow.
# B1: 43049586_43049964_324_5pUTR_ENSMUSG00000036002_ENSMUST00000107956|mouse|control|control (ssRNA)
# RNA: GGGAGUUCUACAGUCCGACGAUCCUGCACGUGGCGCAUGAAGCCCCCCUUGGGUCAGGGGGGCCCCCCCACACGGCCUUUAUGCUGGGCCUGGGCUGGGGGGCCUGGGGACAUCCCGAUGAAGAAGCCUCAAGCCUGGGCGCGCAACAGAGGAUUGAGCAUCA
# B2: chr13:58910217:58910218:+_ENSMUSG00000055254_ENSMUST00000079828|mus_mus|FALSE|FALSE (ssRNA)
# RNA: GGGAGUUCUACAGUCCGACGAUCGCUGUUAGGUUCCAACCUCGGGAAUGCCACGAUGCCUGGAGAAGGCUCAGUACACCAAAUCCUAGCGGAACUGCAUUUGCAGGACGUCGGGCAGGCGAGAGAGGCCCUCCAGAAGCCCAACAACAGAGGAUUGAGCAUCA
# B3: 134191691_134191811_1389_3pUTR_ENSG00000181904_ENST00000394976|human|control|control (ssRNA)
# RNA: GGGAGUUCUACAGUCCGACGAUCAACCUAUCACUGCUCAAAGGCAAACACUGAAGAAUUAUUUCAGGUAUAAUGGUUAAAUCAAUUAAUGCCAUGUAGAUCAAUAAAUUACAAGCUGCUUAAACCUAAAACAUUAAAAAUAAGCAACAGAGGAUUGAGCAUCA
# B4: chr6:31383068:31383069:+_ENSMUSG00000025609_ENSMUST00000026699|mus_hu|FALSE|FALSE (ssRNA)
# RNA: GGGAGUUCUACAGUCCGACGAUCAGCCUUUUCAAUCAACUCUUCGCAAGCAUCAAAAUCACCCUUCAACACCAGCUUGUCAUGAAUAUCUGUUAACAUGGGAUGUUCCAGUGCAAUCUUGGUUUUCUUUUGCAGUGACUCAAACAACAGAGGAUUGAGCAUCA
# B5: chr2:216986912:216986913:+_ENSG00000079246_ENST00000392132|hu_hu|FALSE|FALSE (ssRNA)
# RNA: GGGAGUUCUACAGUCCGACGAUCCAGUUUUCUCAGACUCUCACUGAAUGAAUAAAUUUCAUCCAACCCAUCUUCACCUUCUAAAGAUAUCAUCACCAUUUUCACUAUCUCAAGACCUUCUUUUUGCUGUUCGGUAAUUCCUUUCAACAGAGGAUUGAGCAUCA
# B6: chr11:103733960:103733961:-_ENSMUSG00000034187_ENSMUST00000103075|mus_hu|FALSE|FALSE (ssRNA)
# RNA: GGGAGUUCUACAGUCCGACGAUCCAUUUUAACUUCCAGUCUUCCAGGUCUAAGAAGAGCCUCAUCUAUCAGAUCUGGUCUAUUGGUCAUUCCAAUGACUAGGAUGUUGUUUAGCUGCUCCACGCCAUCAAUUUUGGACAGCAACAACAGAGGAUUGAGCAUCA
# B7: chr7:97110809:97110810:-_ENSMUSG00000030619_ENSMUST00000107234|mus_hu|motif|central (ssRNA)
# RNA: GGGAGUUCUACAGUCCGACGAUCGCCACUCUUAGAAAGUAUCAAAUCGCCUAACCAUCGCACACAAUCAACAUAAUUCCGGUGUAUGUCUCUGGUAGAAAAAUCAGGAAAAUGGAUUUUCUGAGAAAUAAAUGGCCUGUUAGUCAACAGAGGAUUGAGCAUCA
# B8: 121658421_121658541_2640_CDS_ENSMUSG00000032525_ENSMUST00000035112|mouse|control|control (ssRNA)
# RNA: GGGAGUUCUACAGUCCGACGAUCACGAGGACAUUCCCAUUCAGGCUUGGGUUUUCCUUCUUCUCUGCCUUUCCCCUGCUUAUCAUUCAAUGCUUCCACUUUUCCCUGCUUCUCCUUCUCUGGGGCUGAGUAUACUUGAACAUGCAACAGAGGAUUGAGCAUCA
# B9: 63378929_63382814_644_CDS_ENSMUSG00000038005_ENSMUST00000037190|mouse|control|control (ssRNA)
# RNA: GGGAGUUCUACAGUCCGACGAUCAAAAGUCUUUGUCACAACCUUCUUAUCUCUCUGUCUCAUCUUCACGGUUCUCUGUUCCAGUGAGUAUCCUAGUUUUCUGGCUGCUUCUGUGAGUUUUUCAUCUAUGUUUUUCAAAAUGCUCAACAGAGGAUUGAGCAUCA
# B10: chrX:11616105:11616106:-_ENSMUSG00000040363_ENSMUST00000043441|mus_hu|motif|central (ssRNA)
# RNA: GGGAGUUCUACAGUCCGACGAUCGAUGUUAUAACACGGUAAGAGGGGGGUCUCUGAAAAUUCAAAUUCAAACACAUCGCGGUAGGCAUCGUCAUCAUCAUCCUGGUCUUCUGGUCCUGGGGGGUUGGCUAAAACAUCAUAGCCCAACAGAGGAUUGAGCAUCA
# B11: chr12:45699863:45699864:+_ENSMUSG00000020598_ENSMUST00000020939|mus_mus|FALSE|FALSE (ssRNA)
# RNA: GGGAGUUCUACAGUCCGACGAUCUGCAGCAUGUCUCAUGCAUCGUAUUGAACUGGAUCCCGCACAGGGAAUAAUGUAAUCUAUUGAUGAUGUUGUAUUUCUUUUUAAUCAGUUCCAAGGAAAUUGAGAAAAACCCCACUCUGACAACAGAGGAUUGAGCAUCA
# B12: chr11:77340908:77340909:-_ENSG00000074201_ENST00000525064|hu_hu|hu_hu_hu_mus_True|18_98 (ssRNA)
# RNA: GGGAGUUCUACAGUCCGACGAUCGUUUGGAUCCCUGGAUAAUGCAUGUAAACUAAUGGUGGGGUAUUCCAGUGAGAAUCCUAAUCCCGAACCAUCUAACCAGGACAGGCGGCUCUCAGCGAUGUAAAGCGUGCCGGUGCCGAGCAACAGAGGAUUGAGCAUCA
# B13: chr3:138341159:138341160:+_ENSG00000158234_ENST00000393035|hu_hu|FALSE|FALSE (ssRNA)
# RNA: GGGAGUUCUACAGUCCGACGAUCGAGACUUUUCCCAUUAAUUUCCAGAGUAUAUUCAUAAGCAAAACCACUGAUAGCGUCUAUAUUUAUGGUCGCUUUUGUCUUUGCAGCUCCAACAUAGAAUGUUUCUUUGCCCACUAAUUUCAACAGAGGAUUGAGCAUCA
# B14: chr13:100204777:100204778:-_ENSMUSG00000052727_ENSMUST00000064762|mus_hu|FALSE|FALSE (ssRNA)
# RNA: GGGAGUUCUACAGUCCGACGAUCCUCCGCAGGGUUUGCUGGAUGCCACACAAUCAAAGAUGAGACUGAAGUUAAGUAGGAAAUCGGGAGAUCUACUUCUUGACCAUUAGGCAGAAUGAAUUCAGCCUUGUCUUUGUUGGUACCCAACAGAGGAUUGAGCAUCA
# Biological target: T1, UNK ZnF1-3 (human, UniProt Q9C0B0 31-174)
# T1 sequence: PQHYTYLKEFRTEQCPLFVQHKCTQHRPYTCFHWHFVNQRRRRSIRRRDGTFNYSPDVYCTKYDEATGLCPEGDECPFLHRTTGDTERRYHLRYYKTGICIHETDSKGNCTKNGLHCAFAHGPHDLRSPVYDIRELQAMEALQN
# Test: nsRBNS (natural sequence RNA bind-n-seq); RBNS binding buffer (assumed for nsRBNS): 25 mM Tris pH 7.5, 150 mM KCl, 3 mM MgCl2, 0.01% Triton X-100, 500 ug/ml BSA, 20 U/ml SUPERase-In, 4 C; UNK is unkempt and MSI1 is Musashi-1; names of the RNAs are library labels; protein concentration not given here; high values mean tight binding
row,Binder,binding signal
1,B1,0.675 enrichment R
2,B2,0.564 enrichment R
3,B3,2.26 enrichment R
4,B4,1.24 enrichment R
5,B5,0.784 enrichment R
6,B6,0.771 enrichment R
7,B7,1.42 enrichment R
8,B8,0.598 enrichment R
9,B9,0.349 enrichment R
10,B10,1.28 enrichment R
11,B11,1.1 enrichment R
12,B12,1.15 enrichment R
13,B13,0.835 enrichment R
14,B14,1.14 enrichment R
